Where no end group is shown, it is not given here. Ahx = NCCCCCC(=O)O
T1: USP10-derived octameric reporter peptide F*-YIFGDFSP
T1 peptide: {Fluorescein-Ahx}-YIFGDFSP

T2: Caprin1-derived dodecamer reporter peptide F*-YNFIQDSMLDFE
T2 peptide: {fluorescein-Ahx}-YNFIQDSMLDFE


Experiments:
[1] = molecular target: T1, USP10-derived octameric reporter …; assay: fluorescence polarisation
[2] = molecular target: T2, Caprin1-derived dodecamer reporter …; assay: fluorescence polarisation

fold decrease in affinity against WT [1]	fold decrease in affinity against WT [2]	fold increase in affinity against WT [1]	Binder
–	–	2.4 fold	G3BP1 NTF2 ([…]) S38G (domain or fragment) not shown
2.4 fold	–	–	G3BP1 NTF2 ([…]) S38T (domain or fragment) not shown

The remaining lines, values behind:

Binder	fold decrease in affinity against WT [1]	fold decrease in affinity against WT [2]	fold increase in affinity against WT [1]
G3BP1 NTF2 ([…]) F33W (domain or fragment) not shown	7.5 fold	46 fold	–
G3BP1 NTF2 ([…]) S38A (domain or fragment) not shown	–	–	2.9 fold

Reference: doi:10.1101/2022.03.02.482667 (bioRxiv, 2022)
